Among all 110,000 compounds or so, about 230 (0.21%) showed an effect of 50% or more. Some of the results follow.
These compounds were tested against DPAP1 (Plasmodium falciparum, UniProt Q8IIJ9) (assay: primary screen, percent inhibition; read by cleavage of a fluorogenic dipeptide substrate; higher = more effect of the substance).
Set-up: species or system P. falciparum D10 trophozoite lysates; single well
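Note: 30 min substrate incubation versus DMSO and 10 µM JCP410 controls.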

DPAP1, sequence (Q8IIJ9 whole entry, looked up): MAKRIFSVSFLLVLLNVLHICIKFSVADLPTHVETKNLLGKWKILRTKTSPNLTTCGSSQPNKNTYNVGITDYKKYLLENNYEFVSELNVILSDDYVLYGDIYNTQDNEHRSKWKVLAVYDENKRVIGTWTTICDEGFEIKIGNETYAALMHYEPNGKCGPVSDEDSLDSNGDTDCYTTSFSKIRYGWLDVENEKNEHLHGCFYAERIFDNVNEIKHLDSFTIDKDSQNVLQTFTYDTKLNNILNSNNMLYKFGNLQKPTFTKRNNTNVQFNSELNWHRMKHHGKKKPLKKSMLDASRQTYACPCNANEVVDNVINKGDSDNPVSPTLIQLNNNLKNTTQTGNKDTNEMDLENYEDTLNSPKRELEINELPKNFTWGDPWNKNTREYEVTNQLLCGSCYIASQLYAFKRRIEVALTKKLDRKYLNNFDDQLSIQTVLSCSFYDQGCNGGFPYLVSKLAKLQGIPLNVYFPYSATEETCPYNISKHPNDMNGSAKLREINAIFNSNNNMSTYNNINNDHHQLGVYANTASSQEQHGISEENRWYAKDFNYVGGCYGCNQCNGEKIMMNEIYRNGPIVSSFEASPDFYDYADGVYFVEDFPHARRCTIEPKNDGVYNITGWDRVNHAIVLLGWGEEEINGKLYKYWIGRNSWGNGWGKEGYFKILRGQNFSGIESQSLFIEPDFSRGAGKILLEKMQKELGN

Row | Compound | % Inhibition @ 10 uM
1 | CC(=O)N1N=C(c2ccco2)CC1c1cc2ccc(C)cc2nc1Cl (stereo not shown) | 1.35%
2 | COc1ccc(C(=O)C2=C(O)C(=O)N(Cc3cccnc3)C2c2ccc(O)c(OC)c2)cc1 (stereo not shown) | -2.85%
3 | CC1(C)CC(NCC(=O)NC2CC(C)(C)NC(C)(C)C2)CC(C)(C)N1 | 2.22%
4 | O=C1C2ON(c3ccccc3)C(c3ccncc3)C2C(=O)N1c1ccc(N2CCOCC2)cc1 (stereo not shown) | -4.41%
5 | Cc1ccc(-c2nc3s/c(=C\c4ccccc4)c(=O)n3n2)cc1 | 0.222%
6 | CN1C(=O)C(=Cc2ccc(-c3ccc(Cl)cc3C(=O)O)o2)C(=O)N(C)C1=O | 3.81%
7 | CCOc1ccccc1NC(=O)c1c(NC(=O)CCC(=O)O)sc2c1CCCCC2 | -0.795%
8 | CCCCOc1ccc(C(C)NC(=O)CCN2N=C(c3ccc(C)cc3)CCC2=O)cc1 (stereo not shown) | 1.62%
9 | COCCN(Cc1ccco1)C(=O)c1cc2c(Cl)nc3ccccc3c2s1 | 3.88%
10 | COC(=O)c1nnn(-c2ccc(OC)cc2OC)c1C(=O)OC | 1.85%
11 | OCCCc1nc2n(n1)C(c1ccccc1)C=C(c1ccc(Br)cc1)N2 (stereo not shown) | -0.512%
12 | COc1ccc(C2OC(=O)C3(CCCCC3)C(=O)C2(C)C)cc1OC (stereo not shown) | 3.04%
13 | CC(=O)c1c(C)n(-c2cccc3ccccc23)c2ccc(O)cc12 | -7.62%
14 | COc1cccc(-c2nc(-c3ccc(Cl)cc3Cl)no2)c1 | -3.77%
15 | CC(C)c1ccccc1NC(=O)CN(c1cccc(C(F)(F)F)c1)S(C)(=O)=O | -1.07%
16 | CCOC(=O)c1ccc(NC(=O)CSc2ncnc3sc4c(c23)CCC4)cc1 | -4.91%
17 | CCC(C)NC(=O)c1ccc([N+](=O)[O-])cc1Cl (stereo not shown) | -1.22%
18 | O=C(O)c1ccccc1NC1=C(Cl)C(=O)N(c2ccccc2)C1=O | -0.99%
19 | COc1ccc(OC)c(NC(=O)CN(c2ccc(Cl)cc2C)S(C)(=O)=O)c1 | 0.324%
20 | CC(C)Cn1c(=O)c2ccccc2n2c(CCC(=O)NC3CCN(Cc4ccccc4)CC3)nnc12 | 2.6%
21 | CCOc1ccccc1CNC(=O)c1sc2nc(C)cc(C)c2c1-n1cccc1 | 5.42%
22 | Nc1ncc(Br)cc1S(=O)(=O)NCCC(=O)NCc1cccnc1 | -0.659%

Row | Compound | % Inhibition @ 10 uM
23 | COc1ccccc1-c1c(C)nn2c(N3CCN(C(=O)c4ccco4)CC3)cc(C)nc12 | -2.72%
24 | Cc1ccc(C2C(C#N)=C(N)Oc3[nH]nc(C)c32)c(C)c1 (stereo not shown) | -6.25%
25 | Cc1ccc(CN(Cc2ccco2)C(=S)NCC(=O)O)cc1 | 3.04%
26 | CC(=O)c1sc2nc(-c3cccs3)cc(-c3cccs3)c2c1N | 7.74%
27 | Cc1c2cnn(CC(=O)N3CCC(C)CC3)c(=O)c2c(C)n1Cc1ccccc1F | -0.447%
28 | CCCN1C(=O)/C(=C/C=C2/Oc3ccccc3N2CCC(=O)O)N(CCO)C1=S | 3.47%
29 | CCCc1[nH]nc2c1C(c1cccc(OC)c1OC)C(C#N)=C(N)O2 (stereo not shown) | -2.53%
30 | CC(=O)NC1=NN(C(C)=O)C(C)(c2ccc(-c3ccccc3)cc2)S1 (stereo not shown) | 3.99%
31 | COc1ccc(CCNC(=O)c2ccccc2NC(=O)c2ccc(C)cc2)cc1OC | 4.44%
32 | Cc1cc(O)c(C(=O)O)c(/C=C/c2cccc(Br)c2)n1 | 2.6%
33 | O=S(=O)(NC1CC2CCC1C2)c1ccc2c(c1)OCCO2 (stereo not shown) | -0.641%
34 | CC(=O)c1c(C)nc2ccc(Br)cc2c1C(=O)O | 37.2%
35 | CCCc1nnc2sc(NC(=O)COc3ccccc3)nn12 | -0.0652%
36 | OCCCCNc1ncnc2c1ncn2C1OC(CO)C(O)C1O (stereo not shown) | 3.58%
37 | O=C(C1=C(O)C(=O)N(CCCn2ccnc2)C1c1cccnc1)c1ccccc1 (stereo not shown) | 1.88%
38 | CC(=O)c1cccc(N2C(=S)NC(C)(C)C=C2C)c1 | -7.15%
39 | COc1ccc(CC(=O)Nc2cc(Cl)ccc2Cl)cc1 | -4.49%
40 | COc1ccccc1NC(=O)C1CC=CCC1(C)C(=O)O (stereo not shown) | 1.69%
41 | CN(c1ccc(C(=O)NC2CCCC2)cc1)S(C)(=O)=O | 8.82%
42 | CC1CCC(N(C)CCN(C)C)CC1 (stereo not shown) | 0.217%
43 | COc1ccc(-c2cc(-c3ccccc3)nc(O)n2)cc1OC | -3.27%
44 | O=C(NCCC1=CCCCC1)c1cnn(-c2ccc(F)cc2)c1-n1cccc1 | -5%

Row | Compound | % Inhibition @ 10 uM
45 | COc1ccc(NC(=O)c2ccc(CNS(=O)(=O)c3cccc(Cl)c3)cc2)cc1 | -6.05%
46 | COc1cc(CN(C(=S)NCC(=O)NCc2ccc(C)cc2)C2CCCC2)cc(OC)c1OC | 8.9%
47 | CC(Cc1ccccc1)NC(=O)Cc1ccc(N(C)C)cc1 (stereo not shown) | -2.21%
48 | CN(C)CCCC1(O)c2ccccc2C=Cc2ccccc21 | -4.28%
49 | CCOc1cccc2cc(C(=O)O)c(=O)oc12 | -6.08%
50 | CN(C(=O)/C=C\C(=O)O)C1CCS(=O)(=O)C1 (stereo not shown) | 2.56%
51 | N#Cc1ccc(Cn2cnc3ccccc32)cc1 | 0.454%
52 | Cc1ccccc1-c1nc2s/c(=C\C3=Cc4ccccc4OC3)c(=O)n2n1 | -2.98%
53 | Cc1ccccc1C(=O)Nc1sc2c(c1C(=O)N1CCC(C)CC1)CCC2 | -0.339%
54 | Cc1ccc(Cl)cc1-n1c(C)cc(C=C2C(=O)NC(=O)NC2=O)c1C | 1.91%
55 | CC(C)CC(=O)NCCNC(=O)c1c(O)oc2ccccc2c1=O | 1.7%
56 | Cc1ccc(Cn2c(C)c(CNCc3ccc(C)o3)c(C(=O)O)c2C)cc1 | -0.23%
57 | O=C(Cn1c(=O)c2cccn2c2cccnc21)NCCCN1CCC(Cc2ccccc2)CC1 | 1.26%
58 | CC(=O)c1sc(N2N=C(c3ccccc3)CC2c2ccccc2)nc1C (stereo not shown) | 4.26%
59 | Cc1ccc(C2c3c(-c4ccccc4O)n[nH]c3C(=O)N2Cc2ccco2)cc1 (stereo not shown) | 6.67%
60 | Cc1ccc(SCCC(=O)NC2CC2)cc1 | 1.94%
61 | CNC(=O)CN1C(=O)CSc2nc(C)cc(C)c21 | -7.93%
62 | Cc1ccc(C)n1-c1ccccc1C1C=CN(C(=O)OC(C)(C)C)C=C1 | -1.22%
63 | Cn1c(CCNC(=O)c2ccco2)nc2ccccc21 | 0.366%
64 | Cc1ccccc1CSCC(=O)Nc1ccccc1C(=O)NCC(C)C | -8.49%

Source: PMC6919601, “Identification of Plasmodium dipeptidyl aminopeptidase allosteric inhibitors by high throughput screening” (PLoS ONE, 2019)
